± gives the standard deviation. Only a part is listed here, and it is no random draw.
Each sequence was assayed on MIWI (PIWIL1) piRISC loaded with piRNA #1 (30 nt) (assay: pre-steady-state target cleavage rate (min^-1); MIWI and MILI are mouse PIWI proteins and EfPiwi is from a freshwater sponge; tags in brackets are library labels; higher = faster piRNA-guided slicing of the target). Details: guide: piRNA #1 5'p-UGAGGUAGUAGGUUGUAUAGUAUCCAGAGG; auxiliary factor: 500 nM mouse GTSF1.
In short: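 Active affinity-purified piRISC (1 nM) loaded with one synthetic guide was mixed with a transcribed, DNA-blocked target RNA library (0.1 nM), with or without 500 nM GTSF1 partner protein, in HEPES–potassium acetate buffer at 33 °C for 0–8 or 0–960 min. Uncleaved targets were sequenced, normalised to depth and to weakly complementary targets, and pooled across three trials, with k3 capped at 0.0001 min^-1. The pre-steady-state cleavage rate was determined with a burst-and-steady-state fit.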

| Sequence | pre-steady-state target cleavage rate |
| --- | --- |
| GGAGACCUUAGUAUACAACCUACUACCACA | 0.257 ± 0.037 |
| GGUCUGGAUAGUAUACAACCUAGUACCUCA | 0.443 ± 0.043 |
| GGAGACCUUACUAUACAUCCUACUACCUGA | 0.542 ± 0.059 |
| GGAGAGGAUACUAUACAACCUACUUACCUCA | 1.18 ± 0.062 |
| GGAGUGGAUACUAUAGAUCCUACUACCUCA | 1.06 ± 0.066 |
| GGAGACGAUACUAUACUACCUACUACCACA | 1.22 ± 0.079 |
| GGACUGGAUACUAUACUACCUACUAGCUCA | 0.234 ± 0.037 |
| CCUCUGGAUACUGUACAACCUACUACCUCA | 0.782 ± 0.062 |
| GGAGACCAUACUAUACUUCCUACUACCUCA | 0.113 ± 0.017 |
| GGUCUGGAUACUUUAGAACCUACUACCUCA | 0.554 ± 0.039 |
| GGAGACCUAUCUAUACAUCCUACUAGCUCA | 0.111 ± 0.017 |
| GGAGACCUAUCUAUACAACCUACUACCCCA | 0.738 ± 0.073 |
| GGAGACGAUUCUAUACAACCUACUACGUCA | 0.92 ± 0.069 |
| GGAGACCUAACUAUACAUCCUACAACCUCA | 0.274 ± 0.069 |
| GGACUGGAUACUAUACAACCUACUACCACA | 0.55 ± 0.056 |
| GGAGACCUAAGUAUACAACCUACUAGCUCA | 0.0148 ± 0.0044 |
| CCUCUCGAUACUAUACAACCUACUACCACA | 2.21 ± 0.12 |
| GGAGACCUUAGUAUAGAACCUACUACCUCA | 0.394 ± 0.063 |
| GGACUGGAUACUAUACAAGCUUCUACCUCA | 0.152 ± 0.014 |
| GGAGUGGAUACUAUUCAACCUAGUACCUCA | 0.351 ± 0.045 |

| Sequence | pre-steady-state target cleavage rate |
| --- | --- |
| GGACUCGAUACUAUACAACCUUCUACCUCA | 0.666 ± 0.047 |
| GGACUGGAUACUAUACAACCUAGUACCUCA | 0.432 ± 0.073 |
| GCUCUGGAUACUAUACAACGUACUAGCUCA | 0.59 ± 0.054 |
| GGAGAGGAUACUUACAACCUACUACCUCA | 0.905 ± 0.064 |
| GGUCUGGAAACUAUACAACCUACUACCUGA | 0.715 ± 0.16 |
| GGAGUGGAUUCUAUACAACCUAGUACCUCA | 0.484 ± 0.064 |
| GGAGACGAAACUAUACAACCUACUAGCUCA | 0.413 ± 0.061 |
| GGAGACCAUACUAUACAACCUACUACCUA | 1.03 ± 0.066 |
| GGAGUGGAUACUAUACAACCUACUACCAUCA | 0.269 ± 0.036 |
| CCUCUGGAUACUAUACAACCUACUAUCCUCA | 0.472 ± 0.047 |
| CCUCUGGAUACUAUACAACGUACAACCUCA | 0.961 ± 0.098 |
| GGAGAGGAUACUAUACUUGCUACUACCUCA | 0.039 ± 0.008 |
| GGACUGGUAUACUAUACAACCUACUACCUCA | 1.68 ± 0.14 |
| CCUCUGGAUUACUAUACAACCUACUACCUCA | 1.9 ± 0.12 |
| GGAGACCUAUCUAUACAACCUAGUACCUCA | 0.237 ± 0.034 |
| GGAGACCUAUCUAUACAACCUACUGCCUCA | 0.381 ± 0.049 |
| GGAGACCUUACUAUUCAACCUACUACCUGA | 0.45 ± 0.046 |
| GGAGUGGAAUGUAUACAACCUACUACCUCA | 0.345 ± 0.043 |
| GGUCUGGAUUACUAUACAACCUACUACCUCA | 1.66 ± 0.1 |
| GGUCUGGAUACUAUACAACCUACUACCUAA | 0.778 ± 0.079 |
